Results reported in the supplement of paper PMC12217912.
The list shows a part of the results. Sequences were assembled here from the parent chain. Inactive controls read about 0.05.

B1: TEV protease; numbered along this chain (parent)
chain: MGESLFKGPRDYNPISSSICHLTNESDGHTTSLYGIGFGPFIITNKHLFRRNNGTLVVQSLHGVFKVKDTTTLQQHLVDGRDMIIIRMPKDFPPFPQKLKFREPQREERICLVTTNFQTKSMSSMVSDTSCTFPSGDGIFWKHWIQTKDGQCGSPLVSTRDGFIVGIHSASNFTNTNNYFTSVPKNFMELLTNQEAQQWVSGWRLNADSVLWGGHKVFMVKPEEPFQPVKEATQL

Variants of: B1
Test: raw area under fraction-flipped curve 0-4 h after induction (AUC4h, not background-subtracted), DNA-recorder readout of cleavage of the substrate (dimensionless); higher = more cleavage of the substrate by the protease variant
Conditions: temperature: 34 °C; time window: 0-4 h after rhamnose induction
Experimental: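 In vivo DNA recorder in E. coli TOP10(DE3) ΔrhaA at 34 °C. Each TEVp single-site mutant (parent TEVp 0) is paired with a single-site variant of the 7-mer TEVs (canonical ENLYFQ|S). The substrate sits between flexible linkers in a Bxb1-sfGFP-TEVs-SsrA fusion, so cleavage stabilises Bxb1 and speeds flipping of a recombination array, read by NGS. The value is the raw area under the fraction-flipped curve over 0-4 h after rhamnose induction (AUC4h), with ≥20 reads per time point. It is not background-subtracted; inactive controls average about 0.047.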
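Also: Bxb1 expression induced with 0.2% (w/v) L-rhamnose at OD600 near 0.5, cultures sampled hourly, flipped fraction per protease–substrate barcode pair counted by paired-end Illumina sequencing.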

Variant	area with substrate ECLYFQS	area with substrate EDLYFQS	area with substrate EGLYFQS	area with substrate EHLYFQS	area with substrate EILYFQS	area with substrate EKLYFQS	area with substrate ELLYFQS	area with substrate EMLYFQS	area with substrate EPLYFQS	area with substrate EQLYFQS	area with substrate ERLYFQS	area with substrate ESLYFQS	area with substrate ETLYFQS	area with substrate EVLYFQS	area with substrate EWLYFQS	area with substrate EELYFQS	area with substrate EYLYFQS	area with substrate EFLYFQS
H47P	0.0636	0.057	0.0662	0.0612	0.0661	0.0619	0.0553	0.0638	0.0609	0.0584	0.063	0.0453	0.0413	0.0656	0.06	–	–	–
R50E	0.0896	0.132	0.0519	–	–	0.0867	0.0831	0.104	–	0.0975	0.0808	–	0.117	0.0854	–	0.124	0.0822	–
R51F	0.134	0.173	–	–	0.138	0.138	–	0.117	0.126	0.15	0.133	0.109	0.137	0.103	–	0.113	–	–
N52D	0.0448	–	0.0967	–	0.0682	–	0.0321	0.125	–	0.069	0.0675	0.089	0.0768	0.0681	0.0591	0.0787	0.113	0.0656
G54S	0.0821	–	0.0904	0.103	0.0866	0.082	0.0609	0.0893	–	0.0733	0.0418	0.0709	–	0.0678	–	0.0804	0.106	–
L56E	0.0372	0.0439	0.0685	0.0429	0.041	0.0345	0.0559	0.0626	0.0352	0.0555	–	0.0376	–	0.0463	0.0601	–	0.0474	0.0258
V58F	0.0968	–	–	–	0.0872	–	0.0826	–	0.102	–	–	–	–	–	–	–	0.067	–
Q59F	0.101	0.132	0.0893	0.0646	0.091	0.11	0.0773	0.0794	0.0852	0.0887	0.0942	0.0895	0.126	–	0.0773	–	0.0979	–
Q59M	0.0986	0.139	0.123	–	0.0975	0.102	0.141	–	–	0.128	–	0.0888	–	0.0906	–	0.113	0.0882	0.0872
S60M	0.0938	0.139	0.119	0.0985	0.112	–	0.0722	0.11	0.137	0.148	0.0973	0.102	0.126	0.0864	0.0884	0.126	0.116	–
L61E	0.0985	–	–	–	0.0897	0.108	0.0834	0.142	0.137	0.111	0.0988	0.0794	0.113	0.102	0.0872	0.113	0.0889	–
H62S	0.117	–	0.108	–	0.0913	–	0.106	–	0.123	0.11	0.0933	0.108	0.0827	0.105	0.0972	–	0.116	–
H62W	0.0764	–	0.0954	–	0.118	0.106	0.0887	–	0.0994	0.106	0.0973	0.0938	–	0.108	0.0857	–	–	–
G63H	0.0991	0.113	0.0881	–	0.096	0.0854	0.0947	–	–	0.0878	–	–	–	0.0816	–	–	–	–
F65M	0.0944	0.127	0.0885	0.0993	0.0864	0.106	–	0.0898	0.105	–	0.09	0.095	0.0873	0.0901	0.0834	0.115	0.112	–
V67C	0.106	0.108	0.101	–	–	0.115	0.114	0.106	0.0743	0.115	0.108	–	–	0.0904	0.071	–	–	–
K68C	0.107	0.149	–	0.144	0.133	0.134	0.0865	–	0.136	0.119	0.077	0.103	0.0977	0.139	–	0.126	0.122	–
K68V	0.087	0.13	0.0884	–	0.0968	0.105	–	0.114	0.121	0.119	0.0954	0.115	–	0.0896	–	0.11	0.104	–
D69N	0.094	0.104	–	0.045	0.0684	0.125	–	–	–	0.089	0.1	0.105	0.0617	0.088	0.0868	0.0992	0.122	0.124
D69T	0.0934	0.0823	0.076	–	0.0677	–	0.0719	0.119	0.133	–	–	0.0848	–	0.104	0.0727	0.105	–	–
T70G	0.0873	0.0817	0.0541	–	0.0748	0.0859	0.0636	–	0.0908	–	0.076	0.0801	–	0.0632	0.0671	–	–	–
T70Q	0.0834	–	–	0.0839	–	0.0642	–	0.093	0.0871	0.104	0.0792	0.0809	–	–	–	0.0904	0.0864	–
T71P	0.106	–	0.0487	–	0.0803	0.0853	0.0687	–	–	–	–	0.0714	–	–	–	0.107	–	–
L73S	0.063	–	0.0368	–	0.0561	–	–	0.0608	0.0617	–	0.0326	0.0686	–	0.0619	0.0554	0.0944	–	–
L73T	0.0693	0.0731	0.0617	0.0762	0.0731	0.0665	–	0.0864	–	–	0.0802	0.0578	–	0.0563	–	–	0.0805	0.0758
L73W	0.0727	–	–	–	0.0688	–	0.06	–	–	–	–	–	–	0.0392	–	–	–	–
Q74C	0.0799	–	0.0561	–	0.0729	–	–	0.139	0.12	0.11	0.108	0.109	0.121	0.106	0.0918	0.141	–	0.0856
L77E	0.0458	–	0.0763	0.059	0.037	0.0592	0.0637	–	0.0596	–	0.0687	0.0605	0.0684	0.0673	0.0529	0.0832	–	0.0545
L77G	0.0682	–	–	–	–	0.0771	0.0768	–	0.0871	0.0761	0.064	0.0832	–	–	–	0.0814	–	–
